The other results are listed elsewhere or left out.
Columns and labels:
Test in all cases: glycan array binding signal (z-score within array); higher = stronger binding
Conditions in all cases: glycan notation: IUPAC condensed, linker removed; mutation: H84T
[1] = molecular target: Neu5Ac(a2-3)Gal(b1-4)GlcNAc(b1-3)[Neu5Ac(a2-3)Gal(b1-4)GlcNAc(b1-6)]GalNAc
In short: (§1)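 Glycan array data came from 3228 arrays in the Consortium for Functional Glycomics database, and only arrays with an available protein sequence were kept. Glycan names were put into IUPAC-condensed notation, and columns mapping to the same glycan were averaged. The binding signal is a within-array Z-score, averaged across arrays of one protein sequence run at different concentrations or buffers and across linkers. A negative Z-score can be read as non-binding.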

[2] = molecular target: Neu5Ac(a2-3)Gal(b1-4)GlcNAc(b1-6)GalNAc
In short: as §1

[3] = molecular target: Neu5Ac(a2-3)Gal(b1-4)GlcNAc(b1-6)[Gal(b1-3)]GalNAc
In short: as §1

[4] = molecular target: Neu5Ac(a2-3)Gal(b1-4)GlcNAc(b1-6)[Neu5Ac(a2-3)Gal(b1-3)]GalNAc
In short: as §1

[5] = molecular target: Neu5Ac(a2-3)Gal(b1-4)GlcNAc6S
In short: as §1

[6] = molecular target: Neu5Ac(a2-3)Gal(b1-4)[Fuc(a1-3)]GlcNAc
In short: as §1

[7] = molecular target: Neu5Ac(a2-3)Gal(b1-4)[Fuc(a1-3)]GlcNAc(b1-2)Man
In short: as §1

[8] = molecular target: Neu5Ac(a2-3)Gal(b1-4)[Fuc(a1-3)]GlcNAc(b1-3)Gal
In short: as §1

[9] = molecular target: Neu5Ac(a2-3)Gal(b1-4)[Fuc(a1-3)]GlcNAc(b1-3)Gal(b1-4)GlcNAc
In short: as §1

[10] = molecular target: Neu5Ac(a2-3)Gal(b1-4)[Fuc(a1-3)]GlcNAc(b1-3)Gal(b1-4)[Fuc(a1-3)]GlcNAc(b1-3)Gal(b1-4)[Fuc(a1-3)]GlcNAc
In short: as §1

[11] = molecular target: Neu5Ac(a2-3)Gal(b1-4)[Fuc(a1-3)]GlcNAc(b1-3)GalNAc
In short: as §1

[12] = molecular target: Neu5Ac(a2-3)Gal(b1-4)[Fuc(a1-3)]GlcNAc(b1-6)[Gal(b1-3)]GalNAc
In short: as §1

[13] = molecular target: Neu5Ac(a2-3)Gal(b1-4)[Fuc(a1-3)]GlcNAc(b1-6)[Neu5Ac(a2-3)Gal(b1-3)]GalNAc
In short: as §1

[14] = molecular target: Neu5Ac(a2-3)Gal(b1-4)[Fuc(a1-3)]GlcNAc6S
In short: as §1

[15] = molecular target: Neu5Ac(a2-3)Gal6S(b1-4)GlcNAc
In short: as §1

[16] = molecular target: Neu5Ac(a2-3)Gal6S(b1-4)[Fuc(a1-3)]GlcNAc
In short: as §1

Neu5Ac(a2-3)GalNAc = molecular target: Neu5Ac(a2-3)GalNAc
In short: as §1

[17] = molecular target: Neu5Ac(a2-3)GalNAc(b1-4)GlcNAc
In short: as §1

[18] = molecular target: Neu5Ac(a2-3)[GalNAc(b1-4)]Gal(b1-4)Glc
In short: as §1

[19] = molecular target: Neu5Ac(a2-3)[GalNAc(b1-4)]Gal(b1-4)GlcNAc
In short: as §1

[20] = molecular target: Neu5Ac(a2-3)[GalNAc(b1-4)]Gal(b1-4)GlcNAc(b1-3)GalNAc
In short: as §1

[21] = molecular target: Neu5Ac(a2-3)[Neu5Ac(a2-6)]GalNAc
In short: as §1

Neu5Ac(a2-6)Gal = molecular target: Neu5Ac(a2-6)Gal
In short: as §1

[22] = molecular target: Neu5Ac(a2-6)Gal(b1-3)GlcNAc(b1-3)[Gal(b1-4)GlcNAc(b1-6)]Gal(b1-4)Glc
In short: as §1

Neu5Ac(a2-6)Gal(b1-4)Glc = molecular target: Neu5Ac(a2-6)Gal(b1-4)Glc
In short: as §1

[23] = molecular target: Neu5Ac(a2-6)Gal(b1-4)GlcNAc
In short: as §1

[24] = molecular target: Neu5Ac(a2-6)Gal(b1-4)GlcNAc(b1-2)Man
In short: as §1

[25] = molecular target: Neu5Ac(a2-6)Gal(b1-4)GlcNAc(b1-2)Man(a1-3)Man(b1-4)GlcNAc(b1-4)GlcNAc
In short: as §1

[26] = molecular target: Neu5Ac(a2-6)Gal(b1-4)GlcNAc(b1-2)Man(a1-3)[Gal(b1-4)GlcNAc(b1-2)Man(a1-6)]Man(b1-4)GlcNAc(b1-4)GlcNAc
In short: as §1

[27] = molecular target: Neu5Ac(a2-6)Gal(b1-4)GlcNAc(b1-2)Man(a1-3)[GlcNAc(b1-2)Man(a1-6)]Man(b1-4)GlcNAc(b1-4)GlcNAc
In short: as §1

[28] = molecular target: Neu5Ac(a2-6)Gal(b1-4)GlcNAc(b1-2)Man(a1-3)[GlcNAc(b1-4)][Neu5Ac(a2-6)Gal(b1-4)GlcNAc(b1-2)Man(a1-6)]Man(b1-4)GlcNAc(b1-4)GlcNAc
In short: as §1

B1: Banana lectin (Musa acuminata) (protein)
chain: MNGAIKVGAWGGNGGSAFDMGPAYRIISVKIFSGDVVDGVDVTFTYYGKTETRHYGGSGGTPHEIVLQEGEYLVGMAGEVANYTGAVVLGKLGFSTNKKAYGPFGNTGGTPFSLPIAAGKISGFFGRGGKFLDAIGVYLEPLEHHHHHH
glycan array binding signal (z-score) [1]: -0.091
glycan array binding signal (z-score) [2]: -0.172
glycan array binding signal (z-score) [3]: -0.143
glycan array binding signal (z-score) [4]: -0.184
glycan array binding signal (z-score) [5]: -0.184
glycan array binding signal (z-score) [6]: -0.19
glycan array binding signal (z-score) [7]: -0.188
glycan array binding signal (z-score) [8]: -0.16
glycan array binding signal (z-score) [9]: -0.173
glycan array binding signal (z-score) [10]: -0.183
glycan array binding signal (z-score) [11]: -0.13
glycan array binding signal (z-score) [12]: -0.16
glycan array binding signal (z-score) [13]: -0.176
glycan array binding signal (z-score) [14]: -0.163
glycan array binding signal (z-score) [15]: -0.176
glycan array binding signal (z-score) [16]: -0.193
glycan array binding signal (z-score) (Neu5Ac(a2-3)GalNAc): -0.177
glycan array binding signal (z-score) [17]: -0.191
glycan array binding signal (z-score) [18]: -0.183
glycan array binding signal (z-score) [19]: -0.172
glycan array binding signal (z-score) [20]: -0.176
glycan array binding signal (z-score) [21]: -0.174
glycan array binding signal (z-score) (Neu5Ac(a2-6)Gal): -0.173
glycan array binding signal (z-score) [22]: -0.195
glycan array binding signal (z-score) (Neu5Ac(a2-6)Gal(b1-4)Glc): -0.192
glycan array binding signal (z-score) [23]: -0.205
glycan array binding signal (z-score) [24]: -0.153
glycan array binding signal (z-score) [25]: -0.163
glycan array binding signal (z-score) [26]: -0.199
glycan array binding signal (z-score) [27]: -0.159
glycan array binding signal (z-score) [28]: -0.16

— the supplement of paper PMC8728848
